Laboratory results reported in patent publication US20190330336A1 (SUTRO BIOPHARMA, published 2019).

T1: human LAG3 expressed on the cell surface of CHO or HEK293T cells (human, UniProt P18627 23-525)
T1 construct: also called CHO-LAG3; 293T-LAG3
T1 sequence: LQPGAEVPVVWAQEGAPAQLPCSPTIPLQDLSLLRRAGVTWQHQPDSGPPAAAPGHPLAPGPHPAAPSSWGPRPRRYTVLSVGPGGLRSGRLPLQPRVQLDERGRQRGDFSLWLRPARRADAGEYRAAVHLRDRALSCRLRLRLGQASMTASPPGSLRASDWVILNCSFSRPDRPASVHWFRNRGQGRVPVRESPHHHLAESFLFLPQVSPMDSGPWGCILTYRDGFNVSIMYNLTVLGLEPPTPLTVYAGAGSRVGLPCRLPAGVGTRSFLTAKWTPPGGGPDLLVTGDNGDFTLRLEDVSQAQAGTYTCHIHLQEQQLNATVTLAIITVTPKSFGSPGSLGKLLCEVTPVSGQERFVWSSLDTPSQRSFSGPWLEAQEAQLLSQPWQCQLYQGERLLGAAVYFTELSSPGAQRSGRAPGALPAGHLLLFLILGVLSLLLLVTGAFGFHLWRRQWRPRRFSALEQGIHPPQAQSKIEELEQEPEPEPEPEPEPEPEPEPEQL

T2: HIS-tagged (ACRO) or biotinylated recombinant human LAG3 protein (human, UniProt P18627 23-450, HIS tag or biotin, position not stated)
T2 construct: Soluble bought protein; also called rhLAG3
T2 sequence: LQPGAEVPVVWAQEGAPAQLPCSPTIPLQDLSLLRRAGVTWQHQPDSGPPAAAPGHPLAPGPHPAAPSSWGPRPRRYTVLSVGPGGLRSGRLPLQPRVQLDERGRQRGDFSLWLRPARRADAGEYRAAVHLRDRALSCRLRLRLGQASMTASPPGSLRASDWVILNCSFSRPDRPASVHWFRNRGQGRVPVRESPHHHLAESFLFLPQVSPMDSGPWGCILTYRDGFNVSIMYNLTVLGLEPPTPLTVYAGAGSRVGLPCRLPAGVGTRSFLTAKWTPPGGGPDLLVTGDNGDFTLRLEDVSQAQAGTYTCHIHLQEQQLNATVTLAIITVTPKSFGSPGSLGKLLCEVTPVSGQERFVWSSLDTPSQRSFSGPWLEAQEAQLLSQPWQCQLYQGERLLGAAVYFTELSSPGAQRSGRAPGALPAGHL

T3: human LAG3-Fc, R&D Systems #2319-L3 (human, UniProt P18627 23-450)
T3 construct: Bought protein; also called Human LAG3 (Biacore); not shown: human Fc of the bought fusion protein
T3 sequence: T2 sequence

B1: SRP1627-A02 (scFv)
chain: QVQLVQSGAEVKKPGSSVKVSCKASGFNINDYFMHWVRQAPGQGLEWIARIDPWNGDTEYAPKFQGRVTITADESTSTAYMELSSLRSEDTAVYYCGMSDALDYWGQGTLVTVSSGGGGSGGGGSGGGGSDVVMTQSPLSLPVTLGQPASISCKSSQSLLDSDGKTYLNWFQQRPGQSPRRLIYLVSKLDSGVPDRFSGSGSGTDFTLKISRVEAEDVGVYYCSHGNPVPQTFGQGTKVEIKAAGSDQ[human IgG1 Fc with changes cut from this listing]
B2: SRP1627-A11 (scFv)
scFv-Fc: QVQLVQSGAEVKKPGSSVKVSCKASGFNINDYFMHWVRQAPGQGLEWIARIDPWNGDTEYAPKFQGRVTITADESTSTAYMELSSLRSEDTAVYYCGMSDALDYWGQGTLVTVSSGGGGSGGGGSGGGGSDVVMTQSPLSLPVTLGQPASISCKSSQSLLDSDGKTYLNWFQQRPGQSPRRLIYLVSKLDSGVPDRFSGSGSGTDFTLKISRVEAEDVGVYYCWHGINFPQTFGQGTKVEIKAAGSDQ[human IgG1 Fc with changes cut from this listing]
B3: h5G11-2 (scFv)
scFv-Fc: QVQLVQSGAEVKKPGSSVKVSCKASGFNIKDYYMHWVRQAPGQGLEWIAWIDPENGDTEYAPKFQGRVTITADESTSTAYMELSSLRSEDTAVYYCNAPDALDYWGQGTLVTVSSGGGGSGGGGSGGGGSDVVMTQSPLSLPVTLGQPASISCKSSQSLLDSDGKTYLNWFQQRPGQSPRRLIYLVSKLDSGVPDRFSGSGSGTDFTLKISRVEAEDVGVYYCWQGSHFPQTFGQGTKVEIKAAGSDQ[human IgG1 Fc with changes cut from this listing]
notes: also called humanized antibody h5G11-2
B4: SRP1627-B01 (scFv)
scFv-Fc: QVQLVQSGAEVKKPGSSVKVSCKASGFNITDLYMHWVRQAPGQGLEWIARIDPWNGDTEYAPKFQGRATITADESTSTAYMELSSLRSEDTAVYYCIASEMVDYWGQGTLVTVSSGGGGSGGGGSGGGGSDVVMTQSPLSLPVTLGQPASISCKSSQSLLDSDGKTYLNWFQQRPGQSPRRLIYLVSKLDSGVPDRFSGSGSGTDFTLKISRVEAEDVGVYYCSTYSHFPQTFGQGTKVEIKAAGSDQ[human IgG1 Fc with changes cut from this listing]
B5: SRP1558-A06 (scFv)
chain: EVQLLESGGGLVQPGGSLRLSCAASGFTFSESTMSWVRQAPGKGLEWVGFITSDSGTTDYADSVKGRFTISRDNSKNTLYLQMNSLRAEDTAVYYCAKVFEGGVRPFSDYWGQGTLVTVSSGGGGSGGGGSGGGGSEIVLTQSPGTLSLSPGERATLSCRASQSVSSNPLAWYQQKPGQAPRLLIYGASSRATGIPDRFSGSGSGTDFTLTISRLEPEDFAVYYCQQYMAGPPTFGQGTKVEIKAAGSDQ[human IgG1 Fc with changes cut from this listing]
B6: SRP1558-F01 (scFv)
chain: EVQLLESGGGLVQPGGSLRLSCAASGFTFPDSSMSWVRQAPGKGLEWVGVITDNSGNTDYADSVKGRFTISRDNSKNTLYLQMNSLRAEDTAVYYCAKVFEGGVRPYSDYWGQGTLVTVSSGGGGSGGGGSGGGGSEIVLTQSPGTLSLSPGERATLSCRASQSVSSGNPAWYQQKPGQAPRLLIYGASSRATGIPDRFSGSGSGTDFTLTISRLEPEDFAVYYCQQYTAGPPTFGQGTKVEIKAAGSDQ[human IgG1 Fc with changes cut from this listing]
B7: SRP1448-D09 (scFv)
chain: EVQLLESGGGLVQPGGSLRLSCAASGFTFTDSSMSWVRQAPGKGLEWVGVITGNSGTTDYADSVKGRFTISRDNSKNTLYLQMNSLRAEDTAVYYCAKVYEGGVRPYSDYWGQGTLVTVSSGGGGSGGGGSGGGGSEIVLTQSPGTLSLSPGERATLSCRASQSVSSSYLAWYQQKPGQAPRLLIYGASSRATGIPDRFSGSGSGTDFTLTISRLEPEDFAVYYCQQDTAGPPTFGQGTKVEIKAAGSDQ[human IgG1 Fc with changes cut from this listing]

Assays:
[1] = molecular target: T1, human LAG3 expressed on the cell …; assay: flow cytometry on 293T cells expressing human LAG3
Description: Antibody variants were tested in a fluorescence-activated cell sorting (FACS) cell-binding assay. Chinese Hamster Ovary (CHO) cells or HEK293T cells stably expressing the human target molecule LAG3 on the cell surface (CHO-LAG3, 293T-LAG3) were used to screen for cell binders by flow cytometry. Parental CHO or 293T cells were used as a negative control to determine background-binding levels. Cells were cultured in RPMI with 10% FCS Penicillin/Streptomycin (or Pen/Strep) and glutamine (or Gln) and split every 3-4 days at 10⁵ cells/ml.
A mix of parental CHO cells and CHO-LAG3 cells (or 293T and 293T-LAG3 cells) was prepared as follows: Parental CHO cells were washed 2× in PBS then incubated in PBS containing 1 nM CellTrace™ Oregon Green488® (Life Technologies) at 37° C. for 30 minutes. […] Parental CHO cells and CHO-LAG3 cells were then mixed to obtain a 1:1 cell suspension and seeded at 100 μl per well on 96 well polypropylene plates. Plates were spun at 1500 rpm for 5 minutes and cell pellets were suspended in 50 μl FACS buffer containing 6-12 point dilutions of anti-LAG3 variants starting from concentrations of ˜100-200 nM antibody, dispensed using BioMekFX (Beckman Coulter). Cells were then incubated on ice for 1 hr, washed with FACS buffer and incubated for 1 hr on ice with 50 μl FACS buffer containing 2.5 μg/ml R-Phycoerythrin-conjugated Goat Anti-Human IgG (Jackson ImmunoResearch) or AF647-conjugated Goat Anti-mouse IgG (Life Technologies) dispensed using BioMekFX (Beckman Coulter). Cells were then washed 2× with FACS buffer and fixed for 10 minutes in 200 μl PBS with 2% PFA prior to fluorescence detection. Samples were acquired using a Beckton Dickinson LSRII FACS. Mean Fluorescence Intensity of LAG3 antibody binding was analyzed using Tree Star, Inc. FlowJo® software.

[2] = molecular target: T2, HIS-tagged (ACRO) or biotinylated …; assay: FACS competition: antibody inhibits rhLAG3 binding to MHCII on DAUDI cells
Description: DAUDI cells express high levels of Major Histocompatibility Class II (MHCII) molecules, a natural ligand for LAG3, on the cell surface. DAUDI cells were used to screen for antibodies that inhibit binding of HIS-tagged (ACRO) or biotinylated recombinant human LAG3 protein (rhLAG3) to MHCII expressed on the cell surface.
DAUDI cells were cultured in RPMI w/10% FCS Pen/Strep and Gln and split every 3-4 days at 10^5 cells/ml. Cells were washed 2× with FACS buffer (PBS w/2% FCS), […] at a final concentration of 1×10⁶ cells/ml and seeded at 100 μl per well on 96 well polypropylene plates. Plates were spun at 1500 rpm for 5 minutes and cell pellets were suspended in 50 μl FACS buffer containing 8 point 1:3 dilutions (2× concentrated) of anti-LAG3 antibody variants, starting from high concentration of ˜600 nM. 50 μl FACS buffer containing 10-20 μg/ml of the HIS-tagged rhLAG3 protein or 40 μg/ml of the biotinylated rhLAG3 protein were then added to the cells. Cell were then incubated in ice for 1 hr, washed with FACS buffer and incubated for 1 hr in ice with 50 μl FACS buffer containing 2 μg/ml R-Phycoerythrin-conjugated Streptavidin (eBiosciences) or 1 μg/ml R-Phycoerythrin-conjugated anti-HIS IgG (Abcam). Cell were washed 2× with FACS buffer and fixed for 10 minutes in 200 μl PBS w/2% PFA prior to acquisition.

[3] = molecular target: T3, human LAG3-Fc, R&D Systems #2319-L3; assay: SPR (Biacore), antibody captured on anti-Flag chip, human LAG3-Fc analyte, 25 C, 1:1 fit
Description: Anti-Flag M2 IgG (Sigma-Aldrich # F9291) was immobilized onto a CMS chip (GE Life Sciences) using amine coupling chemistry (from Amine Coupling Kit, GE Life Sciences). The immobilization steps were carried out at a flow rate of 25 μL/min in 1×HBS-EP+ buffer (GE Life Sciences; 10× Stock diluted before use). The sensor surfaces were activated for 7 min with a mixture of NHS (0.05 M) and EDC (0.2 M). The Anti-Flag M2 IgG was injected over all 4 flow cells at a concentration of 25 μg/mL in 10 mM sodium acetate, pH 4.5, for 7 min. Ethanolamine (1 M, pH 8.5) was injected for 7 min to block any remaining activated groups. An average of 12,000 response units (RU) of capture antibody was immobilized on each flow cell.
Off-rate and Kinetic binding experiments were performed at 25° C. using 1×HBS-EP+ buffer. Test and control antibodies were injected over the Anti-Flag surface at concentrations of 5-10 μg/mL for 12 seconds at a flow rate of 10 μL/min on flow cells 2, 3 and 4, followed by a buffer wash for 30 seconds at the same flow rate. Kinetic characterization of antibody samples was carried out with a single concentration of antigen (for off-rate ranking) or a dilution series of antigen (for kinetic characterization) and 1 injection of 0 nM antigen. After capturing ligand (antibody) on the anti-Flag surface, the analyte (human LAG3-Fc, R&D Systems #2319-L3; or cynomolgus LAG3-Fc, accession #NC_022282.1) was bound at 50, 25, 12.5, 6.25, and 0 nM for 180 seconds, followed by a 600 second dissociation phase at a flow rate of 50 μl/min. Between each ligand capture and analyte binding cycle, regeneration was carried out using 2 injections of 10 mM glycine pH 2.0 for 30 seconds at 30 μL/min, followed by a 30 second buffer wash step.
The data were fit with the Biacore T200 Evaluation software, using a 1:1 Langmuir binding model. KD (affinity, nM) was determined as a ratio of the kinetic rate constants calculated from the fits of the association and dissociation phases.

| Binder | Kd [1] [nM] | IC50 [2] [nM] | Kd [3] [nM] | koff [3] [s⁻¹] | kon [3] [M⁻¹ s⁻¹] |
| --- | --- | --- | --- | --- | --- |
| B1 | 0.97 | – | – | – | – |
| B2 | 0.74 | 1.6 | 13.5 | 0.00422 | 312000 |
| B3 | 78 | – | 863 | 0.0023 | 2670 |
| B4 | 0.19 | 0.4 | 14.7 | 0.0152 | 1.04e+06 |
| B5 | – | – | 13 | 0.0099 | 790000 |
| B6 | 0.5 | – | 24 | 0.011 | 435000 |
| B7 | 0.4 | – | – | – | – |
